Measured values taken from patent publication US20250388704A1 (Xencor, published 2025).

What was measured:
[1] = target: T1, CD28 antigen used for the affinity determinations (human, UniProt P10747 19-152, limits assumed); test: CD28 binding affinity of the scFv (monovalent, scFv in 1+1 Fab-scFv-Fc bsAb, FIG. 20); method not stated
T1 construct: Octet/BLI is described only for the bivalent mAbs

[2] = target: T1, CD28 antigen used for the affinity …; test: monovalent affinity for human CD28 of the scFv in the context of the 1+1 Fab-scFv-Fc bsAb format; method not stated for this figure

Kd [1] [µM] | Kd [2] [µM] | Binder
0.18 |  | 1A7_H1_L1.71 CD28 binding domain as scFv (in the context of the 1+1 Fab-scFv-Fc bsAb format) (scFv, It was measured as an scFv within a 1+1 Fab-scFv-Fc bsAb whose Fab arm and Fc are not specified at that place; also called 1A7[CD28]_H1_L1.71) scFv: EVQLLESGGGLVQPGGSLRLSCAASGFTFSSYAMSWVRQAPGKGLEWVSTISGSGDSTYYADSVKGRFTISRDNSKNTLYLQMNSLRAEDTAVYYCAKSGPGLRQVGFDYWGQGTLVTVSSGKPGSGKPGSGKPGSGKPGS[left out - about 100 residues]
 | 0.096 | H1.1_L1.71 (scFv, The rest of the bsAb is not specified; also called 1A7[CD28]_H1.1_L1.71 as scFv, VHVL orientation) scFv: EVQLLESGGGLVQPGGSLRLSCAASGFTFSSYYMSWVRQAPGKGLEWVSTISGSGDSTYYADSVKGRFTISRDNSKNTLYLQMNSLRAEDTAVYYCAKSGPGLRQVGFDYWGQGTLVTVSSGKPGSGKPGSGKPGSGKPGS[left out - about 100 residues]
